Consider one molecule from the supplement of paper PMC8728848.

Test in all cases: glycan array binding signal (z-score within array); higher = stronger binding
Settings in all cases: glycan notation: IUPAC condensed, linker removed

Experiment [1] addresses Gal(b1-4)GlcNAc(b1-6)GalNAc. The procedure, abridged:
(§1)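 The Consortium for Functional Glycomics database supplied 3228 glycan arrays, of which those lacking an available protein sequence were dropped. The binding signal, a within-array Z-score, was averaged across arrays of the same protein sequence and across linkers. Negative scores can be read as non-binding.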

Experiment [2] addresses Gal(b1-4)GlcNAc(b1-6)[Gal(b1-3)]GalNAc. The procedure, abridged: as §1
Experiment [3] deals with Gal(b1-4)GlcNAc(b1-6)[Gal(b1-4)GlcNAc(b1-3)]GalNAc. The procedure, abridged:
as §1

In experiment [4] the target is Gal(b1-4)GlcNAc6P. Put shortly:
as §1

The target in experiment [5] is Gal(b1-6)Gal. Put shortly: as §1
The target in experiment [6] is Gal3S(b1-3)GalNAc. The procedure, abridged:
as §1

Experiment [7] addresses Gal3S(b1-3)GlcNAc. The procedure, abridged: as §1
In experiment [8] the target is Gal3S(b1-3)[Fuc(a1-4)]GlcNAc. The procedure, abridged: as §1
In experiment [9] the target is Gal3S(b1-4)Glc. The procedure, abridged: as §1
Experiment [10] concerns the target Gal3S(b1-4)Glc6S. The procedure, abridged:
as §1

Experiment [11] concerns the target Gal3S(b1-4)GlcNAc. Put shortly: as §1
Experiment [12] has as its target Gal3S(b1-4)[Fuc(a1-3)]Glc6S. Put shortly:
as §1

For experiment [13], the target named is Gal3S(b1-4)[Fuc(a1-3)]GlcNAc. Put shortly:
as §1

Experiment [14] deals with Gal3S(b1-4)[Fuc(a1-3)]GlcNAc6S. Put shortly: as §1
Experiment [15] concerns the target Gal3S4S(b1-4)GlcNAc. Put shortly:
as §1

For experiment [16], the target named is Gal3S6S(b1-4)GlcNAc. The procedure, abridged:
as §1

In experiment [17] the target is Gal3S6S(b1-4)GlcNAc6S. The procedure, abridged: as §1
Experiment [18] has as its target Gal4S(b1-4)GlcNAc. Put shortly:
as §1

Experiment [19] concerns the target Gal4S6S(b1-4)GlcNAc. The procedure, abridged:
as §1

The target in experiment [20] is Gal6P(b1-4)GlcNAc. The procedure, abridged: as §1
Experiment [21] addresses Gal6S(b1-3)GlcNAc. Put shortly:
as §1

The target in experiment [22] is Gal6S(b1-3)GlcNAc6S. Put shortly: as §1
The target of experiment [23] is Gal6S(b1-4)Glc. Put shortly:
as §1

The list shows a part of the results.

B1: Epa3to1 (Candida glabrata) (protein)
chain: MGSSHHHHHHSSGLVPRGSHMKRELSSQNPFGYPIGCSPQDVAIIPGLTMELYSYPIVSGTPPNCYDASYVDPEYPRTGYLKRKMVGKSTGVTGNLNYKYSVEKACMVKYGNLPAGYNYNEPLTVSNFTMILYGYFKAQTTGLHTFFVNADDLLYINFGAGNAFDCCKREDSKTKLGEYVAYDIWHVDSSKNKVSLFLEKDLYYPIRMFFNNREYDSSLDLSFSVNGATDQISDFSGYLYSVPDQPDTCPAHIGYDTTCR
Take B1: the “glycan array binding signal (z-score)” value in [1] is -0.12; in experiment [2], 0.582; in experiment [3], -0.177; in experiment [4] it was -0.619; in experiment [5], 0.923; in experiment [6], -0.295. Further, the “glycan array binding signal (z-score)” value in [7] is -0.366; in [8] it was -0.752; in [9] it was -0.017; in [10] it was -0.103; in [11], -0.412; in experiment [12] it was 0.085. Further, the “glycan array binding signal (z-score)” value was -0.289 in [13]; 0.665 in [14]; -0.112 in experiment [15]; 0.487 in experiment [16]; 0.34 in [17]; -0.388 in experiment [18]. For the same molecule, the “glycan array binding signal (z-score)” value was -0.514 in experiment [19]; -0.465 in experiment [20]; 1.63 in [21]; 4.12 in experiment [22]; 0.932 in [23].
